Assay results taken from the antibiotic and cytotoxicity screens of Wong et al. (2023).
This is one part of the list.

How the values were obtained:
[1] = test system: HSkMC (human skeletal muscle cells); assay: cytotoxicity call (relative viability < 0.9); settings: 10 µM
[2] = test system: HepG2; assay: cytotoxicity call (relative viability < 0.9); settings: 10 µM
[3] = test system: S. aureus RN4220; assay: growth inhibition call (relative growth <= 0.2); settings: 50 µM

| Compound | cytotoxicity call [1] | cytotoxicity call [2] | growth inhibition call [3] |
| --- | --- | --- | --- |
| COc1ccc(CNC(=O)C[C@@H]2C[C@@H]3c4cc(NS(=O)(=O)c5ccc(F)cc5)ccc4O[C@@H]3[C@H](CO)O2)cc1 | inactive | inactive | inactive |
| Cn1nnnc1-c1ccc(N)cc1 | inactive | inactive | inactive |
| C[C@H](CO)N1C[C@H](C)[C@H](CN(C)S(=O)(=O)c2cn(C)cn2)Oc2ccc(NS(C)(=O)=O)cc2CC1=O | inactive | inactive | inactive |
| C[C@H](CO)N1C[C@H](C)[C@H](CN(C)C(=O)Nc2ccc3c(c2)OCO3)Oc2ccc(N(C)C)cc2CC1=O | inactive | inactive | inactive |
| Cc1ccc(S(=O)(=O)N(C)C[C@H]2OCCCC[C@@H](C)Oc3ccc(NC(=O)C4CCCCC4)cc3C(=O)N([C@H](C)CO)C[C@@H]2C)cc1 | inactive | active | inactive |
| C[C@@H]1CN([C@@H](C)CO)C(=O)Cc2cc(NC(=O)Cc3cn(C)c4ccccc34)ccc2O[C@@H]1CN(C)Cc1ccc(Oc2ccccc2)cc1 | inactive | active | inactive |
| O=C(O)/C=C\C(=O)O | inactive | inactive | inactive |
| C[C@H](CO)N1C[C@H](C)[C@H](CN(C)S(=O)(=O)c2cn(C)cn2)Oc2ccc(NC(=O)Nc3ccc(F)cc3)cc2C1=O | inactive | inactive | inactive |
| COc1ccc(NC(=O)N(C)C[C@@H]2Oc3ccc(NC(=O)Cn4cnnn4)cc3C(=O)N([C@@H](C)CO)C[C@H]2C)cc1 | inactive | inactive | inactive |
| C[C@H](CO)N1C[C@H](C)[C@@H](CN(C)Cc2ccncc2)OCCCC[C@H](C)Oc2ccc(NC(=O)Nc3cccc4ccccc34)cc2C1=O | inactive | inactive | inactive |
| COc1ccc(CN(C)C[C@H]2OCCCC[C@H](C)Oc3ccc(NC(=O)c4ccncc4)cc3C(=O)N([C@H](C)CO)C[C@H]2C)cc1 | inactive | inactive | inactive |
| C[C@@H]1CN([C@H](C)CO)C(=O)c2cc(-c3cccc(C(=O)N(C)C)c3)cnc2O[C@@H]1CN(C)C(=O)Cc1ccccn1 | inactive | inactive | inactive |
| Cc1ccc(S(=O)(=O)Nc2ccc3c(c2)C(=O)N([C@@H](C)CO)C[C@H](C)[C@@H](CN(C)C(=O)Nc2ccc(F)cc2)OCCCC[C@H](C)O3)cc1 | inactive | inactive | inactive |
| Cc1ccc(NC(=O)CN)c(F)c1 | inactive | inactive | inactive |
